Paper PMC4336329 (PLoS ONE, 2015)
In all, about 310,000 compounds went through this assay and about 14,000 (4.5%) showed an effect of 50% or more. Effects have a minus sign here. This is one part of the list.

target: human ether-à-go-go-related gene (hERG) potassium channel (human, UniProt Q12809); experiment: primary screen, population patch clamp on CHO cells stably expressing hERG
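Note: peak tail current of the secondary pulse compared with the same well before compound.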

Sequence of human ether-à-go-go-related gene (hERG) potassium channel (Q12809 whole entry, looked up): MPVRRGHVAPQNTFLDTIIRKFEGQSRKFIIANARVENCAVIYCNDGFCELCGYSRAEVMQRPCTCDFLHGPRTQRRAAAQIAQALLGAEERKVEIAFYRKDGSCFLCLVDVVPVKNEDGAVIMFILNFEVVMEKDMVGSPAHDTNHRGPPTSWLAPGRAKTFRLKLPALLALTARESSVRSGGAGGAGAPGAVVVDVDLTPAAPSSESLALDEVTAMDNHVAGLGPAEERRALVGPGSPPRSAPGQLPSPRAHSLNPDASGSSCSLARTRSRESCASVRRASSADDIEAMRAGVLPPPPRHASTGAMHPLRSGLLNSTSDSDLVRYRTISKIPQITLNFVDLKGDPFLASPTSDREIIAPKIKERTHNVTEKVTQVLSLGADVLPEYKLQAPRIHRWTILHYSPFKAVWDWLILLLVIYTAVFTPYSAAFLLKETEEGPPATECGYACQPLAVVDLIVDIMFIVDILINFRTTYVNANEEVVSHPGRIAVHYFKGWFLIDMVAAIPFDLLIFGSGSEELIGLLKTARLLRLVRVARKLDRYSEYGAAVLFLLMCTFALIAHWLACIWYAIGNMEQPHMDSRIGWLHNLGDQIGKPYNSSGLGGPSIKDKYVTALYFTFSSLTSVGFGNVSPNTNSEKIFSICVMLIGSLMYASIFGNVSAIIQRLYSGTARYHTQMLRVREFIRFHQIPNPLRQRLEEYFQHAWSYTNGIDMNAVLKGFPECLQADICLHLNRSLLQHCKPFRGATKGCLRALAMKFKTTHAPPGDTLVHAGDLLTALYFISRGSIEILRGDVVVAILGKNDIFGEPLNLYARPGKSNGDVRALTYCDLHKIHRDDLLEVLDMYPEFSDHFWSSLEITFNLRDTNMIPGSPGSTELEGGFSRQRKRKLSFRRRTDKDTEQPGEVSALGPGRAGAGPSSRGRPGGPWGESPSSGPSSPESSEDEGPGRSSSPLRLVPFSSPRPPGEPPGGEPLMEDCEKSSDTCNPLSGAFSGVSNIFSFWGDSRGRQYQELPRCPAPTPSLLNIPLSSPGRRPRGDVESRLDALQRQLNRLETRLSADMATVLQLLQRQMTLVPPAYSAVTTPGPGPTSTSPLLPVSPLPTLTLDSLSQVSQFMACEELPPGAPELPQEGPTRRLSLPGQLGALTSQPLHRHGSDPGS

Row | Structure (SMILES) | hERG current change (%, negative = inhibition) at 10uM [%]
1 | COc1ccccc1N1CCN(Cc2nnnn2CCc2ccccc2)CC1.Cl | 8.3
2 | C/C(N)=C(/C#N)C(=O)CSc1nc2ccccc2c(=O)n1CCCO | 8.08
3 | COc1cc(NC(=O)COc2ccc(Br)cc2)ccc1NC(=O)C(C)C | 4.1
4 | Cc1ccc(-n2c(SCc3cn4ccsc4n3)nc3ccccc3c2=O)cc1 | 5.15
5 | CCCc1cc(C(=O)NCc2ccc(OC)cc2)no1 | -0.821
6 | COc1ccc(C(=O)CSc2ccc(-c3ccccc3)nn2)cc1 | -17.7
7 | CCOc1ccc(-n2c(SCC(=O)Nc3cc(C)on3)nnc2-c2c[nH]c3ccccc23)cc1 | -2.22
8 | CCCCCC(=O)Nc1cc(S(=O)(=O)N2CCOCC2)ccc1Oc1ccc(OCC)cc1 | -19.7
9 | CC(C)(C)NCC(O)c1cc(O)cc(O)c1.O=S(=O)(O)O (centres unmarked) | 16.7
10 | Cc1ccc(NC(=S)Nc2ccc(F)cc2)cc1 | 8.35
11 | CCC(=O)Nc1ccc(NC(=O)c2ccco2)c(OC)c1 | 1.99
12 | COc1cc(C(=O)NC(C)c2ccc(-n3ccnc3)cc2)cc(OC)c1C (centres unmarked) | -72.9
13 | Cc1ccc(S(=O)(=O)N2CCN(c3cc4c(cc3[N+](=O)[O-])n(C)c(=O)n4C)CC2)cc1 | -4.2
14 | COC(=O)c1ccc(NS(=O)(=O)c2c(C)[nH]c(C)c2C(=O)N2CCCC2)cc1 | 6.6
15 | CCN1CCN(CCNC(=O)c2ccc(CS(=O)(=O)c3c(Cl)cccc3Cl)o2)CC1 | -8.19
16 | O=C(CSc1nc(-c2ccccc2)cs1)Nc1cccc([N+](=O)[O-])c1 | 6.45
17 | COc1cc2[nH]c(=O)n(Cc3ccc(C(=O)NCCCN4CCN(C)CC4)cc3)c(=O)c2cc1OC | 7.67
18 | CCCc1nc2oc3c(OC)ncnc3c2c2c1COC(C)(C)C2 | -21.5
19 | COc1cc(/C=C/C(=O)OCC(=O)NCC2CCCO2)ccc1OCC#N (centres unmarked) | 5.63
20 | CCO[C@@H]1OC(C(=O)NC2CC2)=C[C@H](C2CC2)[C@H]1CCCO | 3.98
21 | Cc1csc(SCC(=O)N(C)CC(=O)Nc2ccc(F)cc2)n1 | 15.6
22 | N#Cc1ccc(CNc2cnccn2)cc1 | -17.5

Row | Structure (SMILES) | hERG current change (%, negative = inhibition) at 10uM [%]
23 | O=C(c1ccccc1F)N1CCN(c2ccc([N+](=O)[O-])c(NCc3cccnc3)c2)CC1 | -45.5
24 | COc1ccc(CN2C(=O)C(CC(C)C)Nc3ncnc(N4CCN(c5ccccn5)CC4)c32)cc1.O=C(O)C(F)(F)F (centres unmarked) | -45.9
25 | COc1cc(OC)c2c(c1)OC(c1ccc(OC)c(OC)c1)C(O)C2=O (centres unmarked) | -1.88
26 | CC(O)c1nc2ccccc2n1Cc1ccccc1 (centres unmarked) | 3.15
27 | N#C/C(=C\C=C\c1ccccc1)c1nc(-c2ccc3c(c2)OCO3)cs1 | -3.96
28 | CCOc1ccc(Br)cc1S(=O)(=O)Nc1cccnc1 | 15.4
29 | Cc1cc(=O)oc2cc(OS(C)(=O)=O)ccc12 | 4.31
30 | C=CCn1cc(C(=O)N2CCN(CC)CC2)c(=O)c2cc(S(=O)(=O)N(CC)CC)ccc21 | -2.83
31 | CC(c1cccs1)N(Cc1ccco1)C(=S)Nc1ccc(F)c(Cl)c1 (centres unmarked) | 3.53
32 | CCOc1ccccc1C(=O)NCC(=O)OCc1csc(CC(=O)Nc2ccc(C)cc2)n1 | -1.41
33 | COc1ccc(S(=O)(=O)NC(C)C(=O)Nc2ccccc2)cc1Cl (centres unmarked) | 6.81
34 | O=C(c1cccc(C(F)(F)F)c1)N1CCC(O)(CS(=O)(=O)Cc2ccc(Cl)cc2)CC1 | 17.5
35 | CNC(=S)N/N=C/c1ccc(OCC(=O)Nc2c(C)cc(C)cc2C)c(OC)c1 | 0.125
36 | O=[N+]([O-])c1ccc2nc(/C=C/c3ccc(Cl)cc3)[nH]c2c1 | 0.855
37 | O=C(COC(=O)C1Cc2ccccc2CN1C(=O)c1ccccc1Cl)Nc1ccc(N2CCOCC2)cc1 (centres unmarked) | -7.59
38 | Cc1cc(C)c(C(=O)COC(=O)CNC(=O)c2ccccc2C)c(C)c1 | -12.7
39 | COc1cccc(NC(=O)c2ccc(-n3cccn3)nc2)c1 | 10.9
40 | Cc1nc(SCC(=O)O)c(C#N)c2c1CCCC2 | -10.9
41 | O=C(c1ccc(S(=O)(=O)Nc2ccccc2)cc1)N1CCCCCCC1 | 2.5
42 | COc1ccc(/C=C(\NC(=O)c2ccc(OC)cc2)C(=O)Nc2cccc(C(=O)O)c2)cc1 | 8.54
43 | O=C(NCCCO)c1cc2ccccc2[nH]1 | 4.15
44 | CC(=O)c1ccc(NC(=O)CNCC(c2ccccc2)N(C)C)cc1.O=C(O)C(=O)O (centres unmarked) | 2.26

Row | Structure (SMILES) | hERG current change (%, negative = inhibition) at 10uM [%]
45 | COc1cccc(OCc2cc(C(=O)N(C)Cc3nc4ccccc4[nH]3)no2)c1 | -37.1
46 | CCN(CC)CCCNC(=O)CSc1nc(-c2cccs2)cc(C(F)(F)F)n1 | -33.4
47 | O=C(NCCc1ccccc1)c1ccccc1SCC(=O)N1CCCC1 | -51.3
48 | COc1ccc(C(=O)NCCN2CCCC2)cc1OC.Cl | 1.55
49 | CCCOc1ccc(NC(=O)c2c(-c3ccccc3)noc2C)cc1 | -11.7
50 | O=C(c1cccnc1)N1CCN(S(=O)(=O)c2ccc(Cl)cc2)CC1 | -22.1
51 | C=CCN(CC=C)CCCOc1ccccc1C(=O)OC.O=C(O)C(=O)O | -72.4
52 | O=C(N/N=C/c1ccc(N2CCOCC2)cc1)c1ccc(O)cc1 | 9.61
53 | COc1cc(C(=O)NCCCN2CCCC2=O)cc(OC)c1OC | -2.96
54 | O=C(NCCCNC(=O)c1cnccn1)c1ccc(Cl)c(Cl)c1 | -15.6
55 | Cc1ccc2cc(CCNC(=O)c3c(-c4ccccc4Cl)noc3C)c(=O)[nH]c2c1 | 1.48
56 | COc1ccc(/C=N/N2C(=O)C3C4C=CC(CC4)C3C2=O)c(OC)c1 (centres unmarked) | 7.79
57 | COc1ccc2cc3cc(C(=O)NCc4ccc5c(c4)OCO5)oc3nc2c1 | 5.61
58 | CC(C)(C)c1ccc(Cn2nc(CC(=O)O)c3ccccc3c2=O)cc1 | 16.9
59 | OC(COC(c1ccccc1)c1ccccc1)CN1CCc2ccccc2C1 (centres unmarked) | -76.9
60 | Cc1ccccc1NS(=O)(=O)c1cc2c3c(c1)CC(=O)N3CCC2 | -13.6
61 | Cc1cccc(C2c3[nH]c4ccccc4c3CCN2Cc2cnn(-c3ccc(F)cc3)c2)n1 (centres unmarked) | 1.48
62 | OC1=C(O)c2nc3cc(C(F)(F)F)ccc3nc21 | 0.992
63 | CN(C)C(=O)N1CCC(C(=O)NCc2ccc(F)cc2Cl)CC1 | 3.93
64 | COC(=O)c1c(NC(=O)CN2CCN(c3ccccc3Cl)CC2)sc(C)c1C | 0.368
65 | O=C(Cc1ccc(NC2=NC3CS(=O)(=O)CC3S2)cc1)N1CCN(c2ccc(F)cc2)CC1 (centres unmarked) | 20.2
66 | CCC(C(=O)NNC(=O)c1cnccn1)c1ccccc1 (centres unmarked) | 9.26

Row | Structure (SMILES) | hERG current change (%, negative = inhibition) at 10uM [%]
67 | Cc1oc(-c2ccccc2F)nc1CS(=O)CC(=O)NCc1cccs1 (centres unmarked) | -12
68 | O=C(CCN1C(=O)/C(=C\c2ccc(F)cc2)SC1=S)Nc1ccccc1 | 21.5
69 | Cc1ccccc1N1CC(C(=O)Nc2ccncc2)CC1=O (centres unmarked) | -8.15
70 | CCOC(=O)NN1C(=O)c2ccccc2NC1c1ccc(OC)cc1OC (centres unmarked) | -4.55
71 | Cc1cc(-c2nn(C)c(=O)c3ccccc23)cc(C)c1O | 0.868
72 | Cc1cc(C)c(C(=O)COC(=O)c2cc([N+](=O)[O-])ccc2NCCO)cc1C | -6.63
73 | CC(C)N(C(=O)COC(=O)c1ccc(Cl)c(S(N)(=O)=O)c1)C(C)C | 16.8
74 | Cc1cc(CNC(=O)c2cccc([N+](=O)[O-])c2C)c2ccccc2n1 | -53
75 | CC(=O)C1=C(O)C(=O)N(Cc2ccccc2)C1c1ccc(N(C)C)cc1 (centres unmarked) | 14.5
76 | O=c1c2c3c(sc2ncn1/N=C/c1ccc(Br)o1)CCCC3 | -5.03
77 | CC(C)Nc1nc(SC(C)C(=O)Nc2ccccc2)nc(N(C)C)n1 (centres unmarked) | -51.4
78 | CCN(Cc1ccncc1)S(=O)(=O)c1ccc(C(C)=O)cc1 | -28.2
79 | O=C(Nc1ccc([N+](=O)[O-])cn1)c1cc(-c2cccc(Br)c2)nc2ccccc12 | 17.6
80 | C=CCn1c(SCc2ccccc2F)nc2cc(C(=O)O)ccc2c1=O | 34.1
81 | COc1ccc(CN2CCN(C(=O)c3ccccc3F)CC2)c(OC)c1OC | 12
82 | CC(=O)Nc1ccc(NC(=O)C(C)OC(=O)C(C)SCC(=O)Nc2ccc(F)cc2)cc1 (centres unmarked) | 12
83 | O=C(COc1ccccc1)N1CCN(CC2CC3C=CC2C3)CC1.O=C(O)C(=O)O (centres unmarked) | -19.3
84 | COc1ccc(N2CCN(C(=O)CN3C(=O)NC4(CCCCCC4)C3=O)CC2)cc1 | 5.58
85 | C=CCNc1cc(=O)n(Cc2ccccc2)c(=O)[nH]1 | 16
86 | COc1cc2c(C#N)c(N3CCCC3)nc(N)c2c(N)n1 | 7.53
